From PubChem BioAssay AID1768 (National Center for Advancing Translational Sciences (NCATS), 2009)
Several values for one entry are separate records, joined by “and”; a condition that tells them apart may be missing. Equal values may be shown once. Out of some 270,000 compounds screened, about 620 (0.23%) were called active. The shares of active, inactive and inconclusive entries below differ from those in the screen. Calls follow the shape of the dose curve; as a rule, active = well fitted inhibition curve with a large enough effect in the polarisation, with a control signal flat (not every such curve was filed as active); inconclusive = small, poorly fitted or top-dose-only effect, or effect the other way, or a change in a side signal; inactive = no such curve, though single readings can be large or run the other way; the % refers to the polarisation. Potencies of inconclusive entries are doubtful fits and often do not repeat. “Side channel” marks fits to a control or component signal instead of the main read-out.

molecular target: Menin (Homo sapiens) (UniProt O00255); test: qHTS Assay for Inhibitors Targeting the Menin-MLL Interaction in MLL Related Leukemias: Competition With Texas Red Labeled MLL-derived Mutant Peptide; conditions: fluorescence polarization; FP activity change, negative = inhibition: at 61.6 µM (top of the series); as to FP activity change, negative = inhibition: % of control where 0% means no effect
Potency is read from the fitted curve at half-maximal effect; tags tell the direction and shape of the fitted curve or compound fluorescence and quenching.

Chain of UniProt O00255 (O00255 whole entry, looked up): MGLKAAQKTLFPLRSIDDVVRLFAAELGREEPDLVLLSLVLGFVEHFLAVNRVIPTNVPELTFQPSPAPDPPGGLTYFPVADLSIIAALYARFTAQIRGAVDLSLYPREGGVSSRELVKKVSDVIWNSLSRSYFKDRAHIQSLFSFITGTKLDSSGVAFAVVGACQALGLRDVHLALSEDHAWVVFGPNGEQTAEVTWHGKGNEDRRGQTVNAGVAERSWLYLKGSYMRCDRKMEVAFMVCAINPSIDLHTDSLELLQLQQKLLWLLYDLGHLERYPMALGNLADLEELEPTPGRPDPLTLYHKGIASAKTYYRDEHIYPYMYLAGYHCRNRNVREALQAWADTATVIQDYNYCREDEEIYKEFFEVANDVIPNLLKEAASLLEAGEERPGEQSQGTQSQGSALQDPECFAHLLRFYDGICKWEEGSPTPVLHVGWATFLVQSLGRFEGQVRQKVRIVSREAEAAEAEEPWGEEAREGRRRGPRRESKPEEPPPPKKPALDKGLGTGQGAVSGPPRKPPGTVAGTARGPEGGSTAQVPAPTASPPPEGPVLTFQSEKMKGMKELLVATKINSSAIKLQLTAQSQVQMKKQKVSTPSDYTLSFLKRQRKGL

| SMILES | Potency | FP activity change, negative = inhibition |
| --- | --- | --- |
| O=C(Nc1cc(Cl)ccc1O)c1snnc1-c1ccccc1 | inconclusive: 10 µM [quencher, side channel, partial curve] |  |
| O=C(CCCCCNC(=O)N1CCn2c1nc1ccccc12)NCCc1ccccc1 | inconclusive: 11.2 µM [inhibitor, single point] |  |
| O=C(CCC(=O)OCC(=O)c1ccccc1)Nc1cccc2cccnc12 |  | inactive: -13.2% |
| CC1(C)SC(=S)N(/N=C/c2ccc(O)cc2)C1N(O)C(=O)Nc1ccc([N+](=O)[O-])cc1 (stereo not given) | inconclusive: 22.4 µM [quencher, side channel, single point] |  |
| COc1cc(NC(=O)CNC(c2ccccc2)c2ccccc2)cc(OC)c1OC | inconclusive: 8.91 µM [inhibitor, partial curve] |  |
| CC(=O)CCc1oc2c([N+](=O)[O-])cccc2c1-c1ccc(C)o1 | inconclusive: 20 µM [quencher, side channel, single point] |  |
| CCOC(=O)C(CC(=O)c1ccccc1)CC(=O)c1ccccc1 | inconclusive: 14.1 µM [fluorescent, side channel, partial curve] |  |
| Cc1ccc(CC2C(=O)N(c3ccccc3)C(=O)C2C)cc1 (stereo not given) | inconclusive: 2.24 µM [inhibitor, full curve] |  |
| O=S(=O)(Nc1ccc(S(=O)(=O)N2CCCCC2)cc1)c1ccc(Br)s1 | inconclusive: 25.1 µM [quencher, side channel, partial curve] |  |
| Cc1noc(C)c1COc1cccc(C(=O)OC(C)C(=O)Nc2c(C)n(C)n(-c3ccccc3)c2=O)c1 (stereo not given) | inconclusive: 28.2 µM [fluorescent, side channel, single point] |  |
| COc1ccccc1OCCn1cc(C(=O)c2ccco2)c2ccccc21 | inconclusive: 14.1 µM [quencher, side channel, partial curve] |  |
| N#CC1=C(S)N(c2ccccc2)C(c2ccc(-c3cc(Cl)ccc3Cl)o2)NC1=O (stereo not given) | inconclusive: 22.4 µM [quencher, side channel, single point] |  |
| COc1ccc(-c2c(C(C)=O)c(C)nc3sc4c(c23)NC(c2ccccc2)NC4=O)cc1 (stereo not given) | inconclusive: 39.8 µM [inhibitor, single point] |  |
| Cc1nc(NCc2ccccc2)c2nc(-c3ccccc3)n(CCN(C)C)c2n1 | inconclusive: 10 µM [fluorescent, side channel, partial curve] |  |
| CCCC(=O)Nc1cc(C(=O)N(C)CC(OC)OC)ccc1S(=O)(=O)c1ccc(C)cc1 | inconclusive: 28.2 µM [inhibitor, single point] |  |
| CC(C)n1nc(C(=O)OCC(=O)c2c[nH]c3ccccc23)c2ccccc2c1=O | inconclusive: 28.2 µM [quencher, side channel, partial curve] |  |
| O=C(NCc1cccnc1)C(=O)NCC(c1ccco1)N1CCOCC1 (stereo not given) | inconclusive: 2.82 µM [inhibitor, partial curve] |  |
| COc1ccccc1N1C(=N)S/C(=C\c2ccc(-c3ccccc3C(=O)O)o2)C1=O | inconclusive: 12.6 µM [quencher, side channel, partial curve] |  |
| O=C(Nc1ccc(COc2ccccc2)cc1)c1cccc([N+](=O)[O-])c1 | inconclusive: 12.6 µM [quencher, side channel, partial curve] |  |
| COc1ccc(NC(=O)c2cc(-c3cc(C)cc(C)c3O)n[nH]2)cc1Cl | inconclusive: 10 µM [quencher, side channel, partial curve] |  |
| CCOc1ccc(C(=O)/C=C/Nc2ccc(S(=O)(=O)Nc3onc(C)c3C)cc2)cc1 | inconclusive: 25.1 µM [quencher, side channel, single point] |  |
| Cc1c(C(=O)Nc2ccc(Cl)cc2)c2ccccn2c1C(=O)c1ccccc1 | inconclusive: 11.2 µM [inhibitor, single point] |  |
| NS(=O)(=O)c1ccc(CNC(=S)Nc2ccc(Cl)c(Cl)c2)cc1 | inconclusive: 11.2 µM [quencher, side channel, partial curve] |  |
| CCOC(=S)SCC(=O)Nc1nccs1 | inconclusive: 35.5 µM [fluorescent, side channel, single point] |  |
| Cc1c[nH]c2cccc(OCC(O)CNC(C)(C)C)c12 (stereo not given) | inconclusive: 39.8 µM [inhibitor, single point] |  |
| Cc1ccc(OCc2ccc(C(=O)Nc3nccs3)o2)cc1 | inconclusive: 39.8 µM [inhibitor, single point] |  |
| COc1ccc(CN2CCN(Cc3c[nH]c4ccccc34)CC2)cc1 | inconclusive: 7.94 µM [inhibitor, partial curve, poor fit] |  |
| O=S(=O)(c1ccc(Cl)cc1)N1CCN(CCc2ccccc2)CC1 | inconclusive: 39.8 µM [inhibitor, single point] |  |

| SMILES | Potency | FP activity change, negative = inhibition |
| --- | --- | --- |
| N#Cc1ccc(-c2csc(NNC(=O)c3ccc(Br)cc3)n2)cc1 | inconclusive: 8.91 µM [quencher, side channel, partial curve] |  |
| CCN(CCn1cccn1)C(=O)CCc1nnc(-c2ccccc2)o1 |  | inactive: -7.82% |
| Cc1cc(C(=O)O)cc(S(=O)(=O)Nc2ccccc2C(=O)NC(C)c2ccccc2)c1C (stereo not given) | inconclusive: 35.5 µM [quencher, side channel, single point] |  |
| COc1ccc(N/C=C/C(=O)C(C)(C)C)cc1 |  | inactive: 13.4% |
| N#Cc1c(C(F)(F)F)cc(-c2ccccc2)nc1SCc1nc(N)nc(N2CCOCC2)n1 |  | inactive: 7.82% |
| CCCCOC(=O)Nc1ccc(S(=O)(=O)Nc2ccc([N+](=O)[O-])cc2)cc1 | inconclusive: 17.8 µM [quencher, side channel, partial curve] |  |
| Cc1ccc(C)c(N2CCN(C(=O)COc3cc(=O)n(C)c4ccccc34)CC2)c1 | inconclusive: 6.31 µM [fluorescent, side channel, full curve] |  |
| COc1ccccc1-c1nnc(SCc2nc3ccccc3s2)n1C | inconclusive: 2.24 µM [inhibitor, full curve, poor fit] |  |
| CCc1ccc(NC(=O)CNCc2ccc(OC)c(OC)c2)cc1 | inconclusive: 12.6 µM [inhibitor, partial curve] |  |
| COc1ccccc1CNc1nc(-c2ccc3c(c2)OCO3)nc2ccccc12 | inconclusive: 8.91 µM [quencher, side channel, partial curve] |  |
| COc1cccc(/C=C/C(=O)OCC(=O)N2c3ccccc3NC(=O)C2(C)C)c1 | inconclusive: 39.8 µM [inhibitor, single point] |  |
| O=[N+]([O-])c1c(NCc2ccccc2)cc(N2CCc3ccccc3C2)c2nonc12 | inconclusive: 6.31 µM [inhibitor, full curve] |  |
| Cc1ccc(/C=N/NC(=S)NCCc2ccccc2)s1 | inconclusive: 25.1 µM [fluorescent, single point] |  |
| CCC(C)NC(=O)c1ccc(CSCc2ccccc2Cl)o1 (stereo not given) | inconclusive: 20 µM [fluorescent, side channel, partial curve] |  |
| CCCn1c(N2CCC(Cc3ccccc3)CC2)nc2c1c(=O)[nH]c(=O)n2C | inconclusive: 3.55 µM [fluorescent, side channel, full curve] |  |
| NC(=O)c1ccc(NC(=O)Cc2cccs2)cc1 | inconclusive: 22.4 µM [quencher, side channel, partial curve] |  |
| Cn1cc(/C=N/Nc2ccccc2)c2ccccc21 | inconclusive: 17.8 µM [quencher, side channel, partial curve] |  |
| CCOC(=O)N1CCN(/[N+]([O-])=N/Oc2ccc([N+](=O)[O-])cc2[N+](=O)[O-])CC1 | inconclusive: 22.4 µM [quencher, side channel, single point] and inconclusive: 15.8 µM [quencher, side channel, partial curve] |  |
| Cc1ccc2nc3cc([N+](=O)[O-])cc([N+](=O)[O-])c3cc2c1 | inconclusive: 7.08 µM [quencher, side channel, partial curve] |  |
| CC1CN(c2nc(Nc3ccccc3F)nc(N)c2[N+](=O)[O-])CC(C)O1 (stereo not given) |  | inactive: 3.93% |
| COc1cccc(NC(=O)NC(=O)c2c(C)cc(Cl)nc2Cl)c1 | inconclusive: 28.2 µM [quencher, side channel, partial curve] |  |
| CCN(c1ccccc1)S(=O)(=O)c1ccc(NCC2COc3ccccc3O2)nc1 (stereo not given) | inconclusive: 1.26 µM [quencher, side channel, full curve, poor fit] |  |
| COc1ccc(C2NC(=O)NC(C)=C2C(=O)OCC2CCCCC2)cc1OC (stereo not given) | inconclusive: 25.1 µM [fluorescent, side channel, partial curve] |  |
| COc1cc(OC)c(OC)cc1CNC(=O)c1cc(=O)[nH]c2ccccc12 | inconclusive: 2.82 µM [inhibitor, full curve] |  |
| C#CCOCCOCCOCCNc1nc(N2CCN(C(=O)[C@H](CCC(=O)O)n3cc(C(N)CO)nn3)CC2)nc(N2CCN(C(=O)[C@H](Cc3cc4ccccc4[nH]3)n3cc(C(N)[C@H](C)CC)nn3)CC2)n1 (stereo not given in full) | inconclusive: 8.91 µM [fluorescent, side channel, partial curve] |  |
| N#CC1=C(N)OC2=C(CN(Cc3ccccc3)C/C2=C\c2cccnc2)C1c1cccnc1 (stereo not given) | inconclusive: 8.91 µM [inhibitor, full curve, poor fit] |  |
| C=C1CC2C(=O)N(Cc3cc(OC)ccc3OC)C(C(=O)OCC)C1N2C (stereo not given) |  | inactive: -27.7% |
